Measurements from patent publication US20230220085A1 (BRIGHAM AND WOMEN S HOSPITAL, published 2023).

Legend:
[1] = target: T1, Recombinant human ALK1-Fc (ALK1 extracellular domain-IgG Fc fusion protein) (human, UniProt P37023 fragment); test: BLI (Octet Red), FIG. 2A
T1 construct: extracellular domain; Bought reagent (R&D #370AL is named for the luciferase assay); also called immobilized ALK1; ACVRL1; not shown: IgG Fc of the bought fusion protein (captured on anti-human IgG Fc sensors)
Method: (§1) To characterize the biochemical interactions of the scFv clones with recombinant human ALK1 and BMPR2 receptors, we used Bio-Layer Interferometry (Octet Red 384, ForteBio). Receptors, expressed as IgG Fc fusion proteins (i.e., ALK1-Fc, and BMPR2-Fc) were immobilized onto Anti-Human IgG Fc Capture Sensors (ForteBio, #18-0015) at a concentration of 10 µg/mL in an equilibration buffer of HEPES 20 mM (GIBCO #15630), 0.05% Tween-20 (Promega #H5151), and Imidazole 25 mM (SIGMA #10250) in PBS. All the clones were tested at different ranges of concentration in equilibration buffer: 50 nM, 100 nM, 200 nM, and 400 nM. The ForteBio program methodology was set as follows: Baseline equilibration of 60 s, loading time of 60 s, washing time of 120 s, association time of 300 s, and dissociation time of 600 s. The binding kinetics were analyzed using the ForteBio data analysis software.
(§2) Bio-Layer Interferometry was used to determine the affinities of scFv clones for human BMPR2 and ALK1 receptors. The binding kinetics of scFv clones ALK1.3 (FIG. 1A) and ALK1.8 (FIG. 1B) versus immobilized ALK1; and BMPR2.12 (FIG. 1C) and BMPR2.23 (FIG. 1D) against BMPR2 are shown.

[2] = target: T2, Recombinant human BMPR2-Fc (BMPR2 extracellular domain-IgG Fc fusion protein) (human, UniProt Q13873 27-150); test: BLI (Octet Red), immobilized BMPR2, FIG. 2B
T2 construct: extracellular domain; also called immobilized BMPR2; BMPRII; not shown: IgG Fc of the fusion protein (captured on anti-human IgG Fc sensors)
T2 sequence (looked up): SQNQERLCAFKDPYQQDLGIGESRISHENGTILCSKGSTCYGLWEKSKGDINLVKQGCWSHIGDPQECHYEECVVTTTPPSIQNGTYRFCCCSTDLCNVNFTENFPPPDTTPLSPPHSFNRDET
Method: as §1, §2

[3] = target: T1, Recombinant human ALK1-Fc (ALK1 …); test: BLI, FIG. 4D
Method: as §1

T1 sequence (P37023 22-118): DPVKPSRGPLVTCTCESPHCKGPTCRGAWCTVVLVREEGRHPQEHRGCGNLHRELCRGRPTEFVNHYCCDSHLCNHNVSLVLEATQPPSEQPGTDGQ

Row | Binder | binding result [1] | binding result [2] | binding result [3]
1 | scFv clone ALK1.8 (anti-ACVRL1/ALK1) (scFv, Human scFv from phage display, VL-linker-VH, expressed in E. coli; also called ACVRL1.8) scFv: [about 100 residues not written out]EGKSSGSGSESKASQVQLQESGPGLVKPSQTLSLTCTVSGGSISSDDYYWSWIRQTPGKGLEWIGYIYYSGITYYNPSLKSRVTISVDTSKNQFSLKLSSVTAADTAVYYCAREGCNDGVCYNGVFDYWGQGTLVTVSS | binds | no binding | –
2 | Biotinylated scFv ALK1.8 (scFv, biotinylated (DSB-X Biotin Protein Labeling Kit; average 1.5-2 sites per molecule; sites not stated), ALK1.8 scFv after low substitution ratio biotinylation; also called ALK1.8-Bio) scFv: [about 100 residues not written out]EGKSSGSGSESKASQVQLQESGPGLVKPSQTLSLTCTVSGGSISSDDYYWSWIRQTPGKGLEWIGYIYYSGITYYNPSLKSRVTISVDTSKNQFSLKLSSVTAADTAVYYCAREGCNDGVCYNGVFDYWGQGTLVTVSS | – | – | binds
